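A five-concentration, 48-hour dose response in 96-well plates underlies each endpoint, interpolated linearly between surrounding concentrations. GI50 = concentration required for 50% inhibition of growth.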 The source holds more than one record for some entries. The other results are left out here. There may be further records. For part of these data: The values listed for one entry are repeated measurements across runs, samples, wells, individuals or studies. Brackets tell where a record comes from. Letters hold for one entry only.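 TGI denotes the concentration required for complete inhibition of growth.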 For part of these data: The tests behind the records often covered other concentration ranges, not given here; some values may only mark the edge of a range.
Key:
Assay in all cases: NCI tumour cell line growth inhibition, 48 h
[1] = tested on: A498 renal
[2] = tested on: CCRF-CEM leukemia
[3] = tested on: COLO 205 colon
[4] = tested on: EKVX NSCLC
[5] = tested on: HCC-2998 colon
[6] = tested on: HCT-116 colon
[7] = tested on: HL-60(TB) leukemia
[8] = tested on: HOP-62 NSCLC
[9] = tested on: HOP-92 NSCLC
[10] = tested on: HT29 colon
[11] = tested on: IGROV1 ovarian
[12] = tested on: K-562 leukemia
[13] = tested on: KM12 colon
[14] = tested on: LOX IMVI melanoma
[15] = tested on: MALME-3M melanoma
[16] = tested on: MCF7 breast
[17] = tested on: NCI-H226 lung
[18] = tested on: NCI-H23 lung
[19] = tested on: NCI-H460 lung
[20] = tested on: NCI-H522 lung
[21] = tested on: NCI/ADR-RES ovarian
[22] = tested on: OVCAR-3 ovarian
[23] = tested on: OVCAR-4 ovarian
[24] = tested on: OVCAR-5 ovarian
[25] = tested on: OVCAR-8 ovarian
[26] = tested on: RPMI-8226 leukemia
[27] = tested on: RXF 393 renal
[28] = tested on: SF-295 CNS
[29] = tested on: SF-539 CNS
[30] = tested on: SK-MEL-28 melanoma
[31] = tested on: SK-MEL-5 melanoma
[32] = tested on: SK-OV-3 ovarian
[33] = tested on: SN12C renal
[34] = tested on: SNB-75 CNS
[35] = tested on: SW-620 colon
[36] = tested on: UACC-62 melanoma
[37] = tested on: UO-31 renal
[38] = tested on: ACHN renal
[39] = tested on: T-47D breast

In the case of `C/C=C(\C)c1cc(=O)c2c(C)cc3c(c2o1)C(=O)c1c(O)c(C2CC(C)(N(C)C)C(O)C(C)O2)cc(C2CC(N(C)C)C(O)C(C)O2)c1C3=O` (configuration not stated), the GI50 [1] is reported as 198 nM [sample A, mean of 2 tests] and 5.97 µM [sample B, 1 test], the GI50 [2] is reported as 49.3 nM [sample A, mean of 2 tests] and 2.17 µM [sample B, mean of 2 tests] and the GI50 [3] is reported as 224 nM [sample A, mean of 2 tests] and 3.21 µM [sample B, 1 test]. For the same molecule, the GI50 [4] was 340 nM [sample A, mean of 2 tests] and 3.73 µM [sample B, 1 test], the GI50 [5] was 130 nM [sample A, 1 test] and 2.85 µM [sample B, mean of 2 tests] and the TGI [5] was 302 nM [sample A, 1 test] and 11.2 µM [sample B, mean of 2 tests]. The GI50 [6] was 48.2 nM [sample A, mean of 2 tests] and 537 nM [sample B, 1 test], the GI50 [7] was 81.8 nM [sample A, 1 test] and 1.48 µM [sample B, 1 test] and the GI50 [8] was 116 nM [sample A, 1 test] and 4.53 µM [sample B, mean of 2 tests]. For the same molecule, the TGI [8] was 303 nM [sample A, 1 test] and 14.4 µM [sample B, mean of 2 tests], the TGI [9] was 804 nM [sample A] and 9.41 µM [sample B] and the GI50 [10] was 81.8 nM [sample A, mean of 2 tests] and 1.34 µM [sample B, 1 test]. The GI50 [11] was 289 nM [sample A, mean of 2 tests] and 4.35 µM [sample B, mean of 2 tests], the GI50 [12] was 76.2 nM [sample A, mean of 2 tests] and 1.96 µM [sample B, mean of 2 tests] and the GI50 [13] was 208 nM [sample A, mean of 2 tests] and 2.42 µM [sample B, mean of 2 tests]. For the same molecule, the GI50 [14] was 68.6 nM [sample A, mean of 2 tests] and 1.8 µM [sample B, 1 test], the TGI [14] was 461 nM [sample A, mean of 2 tests] and 7.43 µM [sample B, 1 test] and the GI50 [15] was 247 nM [sample A, mean of 2 tests] and 3.46 µM [sample B, mean of 2 tests]. For the same molecule, the TGI [15] was 731 nM [sample A, mean of 2 tests] and 13.6 µM [sample B, mean of 2 tests], the GI50 [16] was 33.4 nM [sample A, mean of 2 tests] and 853 nM [sample B, 1 test] and the GI50 [17] was 210 nM [sample A, mean of 2 tests] and 2.2 µM [sample B, 1 test]. The TGI [17] was 709 nM [sample A, mean of 2 tests] and 8.76 µM [sample B, 1 test], the GI50 [18] was 165 nM [sample A, mean of 2 tests] and 2.37 µM [sample B, mean of 2 tests] and the GI50 [19] was < 16 nM [sample A, mean of 2 tests] and 340 nM [sample B, mean of 2 tests]. The TGI [19] was 214 nM [sample A, mean of 2 tests] and 4.29 µM [sample B, mean of 2 tests], the GI50 [20] was 165 nM [sample A, 1 test] and 2.32 µM [sample B, mean of 2 tests] and the TGI [20] was 363 nM [sample A, 1 test] and 8.25 µM [sample B, mean of 2 tests]. For the same molecule, the TGI [21] was 3.66 µM [sample A, mean of 2 tests] and 43 µM [sample B, 1 test], the GI50 [22] was 214 nM [sample A, mean of 2 tests] and 6.31 µM [sample B, mean of 2 tests] and the TGI [22] was 1.33 µM [sample A, mean of 2 tests] and 22.1 µM [sample B, mean of 2 tests]. The GI50 [23] was 231 nM [sample A, mean of 2 tests] and 2.85 µM [sample B, 1 test], the TGI [24] was 2.91 µM [sample A, mean of 2 tests] and 31.2 µM [sample B, mean of 2 tests] and the GI50 [25] was 70.2 nM [sample A, mean of 2 tests] and 2.4 µM [sample B, mean of 2 tests]. The TGI [25] was 424 nM [sample A, mean of 2 tests] and 21.2 µM [sample B, mean of 2 tests], the GI50 [26] was 204 nM [sample A, 1 test] and 3.53 µM [sample B, mean of 2 tests] and the TGI [26] was 809 nM [sample A, 1 test] and 52.9 µM [sample B, mean of 2 tests]. For the same molecule, the TGI [27] was 325 nM [sample A, 1 test] and 5 µM [sample B, mean of 2 tests], the GI50 [28] was 224 nM [sample A, mean of 2 tests] and 2.26 µM [sample B, mean of 2 tests] and the TGI [28] was 854 nM [sample A, mean of 2 tests] and 19.7 µM [sample B, mean of 2 tests]. The GI50 [29] was 146 nM [sample A, mean of 2 tests] and 3.59 µM [sample B, 1 test], the TGI [29] was 354 nM [sample A, mean of 2 tests] and 15.1 µM [sample B, 1 test] and the GI50 [30] was 210 nM [sample A, mean of 2 tests] and 4.54 µM [sample B, mean of 2 tests]. The TGI [30] was 491 nM [sample A, mean of 2 tests] and 16.4 µM [sample B, mean of 2 tests], the GI50 [31] was 181 nM [sample A, mean of 2 tests] and 2.86 µM [sample B, mean of 2 tests] and the TGI [31] was 468 nM [sample A, mean of 2 tests] and 12.2 µM [sample B, mean of 2 tests]. For the same molecule, the GI50 [32] was 273 nM [sample A, mean of 2 tests] and 6.64 µM [sample B, mean of 2 tests], the TGI [32] was 3.56 µM [sample A, mean of 2 tests] and 88.8 µM [sample B, mean of 2 tests] and the GI50 [33] was 235 nM [sample A, mean of 2 tests] and 3.07 µM [sample B, mean of 2 tests]. For the same molecule, the TGI [33] was 1.29 µM [sample A, mean of 2 tests] and > 51.4 µM [sample B, mean of 2 tests], the GI50 [34] was 144 nM [sample A, mean of 2 tests] and 4.02 µM [sample B, mean of 2 tests] and the TGI [34] was 310 nM [sample A, mean of 2 tests] and 18.4 µM [sample B, mean of 2 tests]. For the same molecule, the GI50 [35] was 73.7 nM [sample A, 1 test] and 1.99 µM [sample B, 1 test], the GI50 [36] was 144 nM [sample A, mean of 2 tests] and 4.34 µM [sample B, 1 test] and the TGI [36] was 408 nM [sample A, mean of 2 tests] and 29.8 µM [sample B, 1 test]. The TGI [37] was 2.22 µM [sample A, mean of 2 tests] and > 58 µM [sample B, mean of 2 tests].

For `COC1C(O)C(C)OC(OC2C(Oc3cccc4c(O)c5c(=O)oc6ccc(C)c7c(=O)oc(c34)c5c67)OC(C)C3O[C@H](c4ccccc4)OC32)C1O` (some centres not stated), the TGI [38] was 143 nM and 1.81 µM and the TGI [39] was 975 nM and 14.7 µM.

Reference: PubChem BioAssay (NCI)
